# The supplement of paper PMC3334620
# In all, about 33,000 sequences were measured (“E-score (-0.5 to 0.5)”: median about -0.013, highest 2% from about 0.3 on). This is one part of the list.
# Target: T1, Msn1 (UniProt P22148)
# T1 sequence: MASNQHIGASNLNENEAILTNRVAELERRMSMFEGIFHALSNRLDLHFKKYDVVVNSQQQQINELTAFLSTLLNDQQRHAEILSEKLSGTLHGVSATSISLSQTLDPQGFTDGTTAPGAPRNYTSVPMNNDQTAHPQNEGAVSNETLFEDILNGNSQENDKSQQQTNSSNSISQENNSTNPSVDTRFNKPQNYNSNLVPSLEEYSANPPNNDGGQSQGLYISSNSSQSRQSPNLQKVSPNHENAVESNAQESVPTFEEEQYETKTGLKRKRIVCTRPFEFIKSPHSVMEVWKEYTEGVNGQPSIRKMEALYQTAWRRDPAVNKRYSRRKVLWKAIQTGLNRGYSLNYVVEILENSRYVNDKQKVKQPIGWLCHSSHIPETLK
# Test: PBM E-score (8-mer binding enrichment) (E-score (-0.5 to 0.5)); higher = stronger / more preferred TF binding; most listed sequences are background and not binding sites
# Conditions: protein concentration: 200 nM; construct: GST-full length
# Procedure, shortened: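 GST-tagged yeast TFs (full-length or DNA-binding domain) were made by PURExpress in vitro transcription/translation and applied at about 100-200 nM to universal all-10-mer Agilent arrays. The arrays were made double-stranded by primer extension, on fresh or once-stripped slides. Bound protein was detected with fluorescent anti-GST, and scans were normalised with masliner. Each ungapped eight-base word, pooled with its reverse complement, received an E-score (modified Wilcoxon-Mann-Whitney statistic) from the Universal PBM Analysis Suite.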
row,Sequence,PBM E-score
1,ATGGTGCG,-0.0932
2,ACGGCCCT,-0.305
3,GTCGCGAA,0.141
4,ACCGACAT,0.28
5,ACCAAACC,-0.0217
6,CGAACAGA,0.0524
7,AAGATCAC,0.0378
8,GCCAGGTA,0.0163
9,CCAGGCTC,-0.0697
10,TATCCGAA,0.0901
11,GAGAGCCA,-0.0964
12,CCGGGTTC,-0.208
13,AACTATAC,-0.00679
14,AACGTTAC,-0.0224
15,GAAGATCA,-0.022
16,GCGATGCA,-0.287
17,GGGTGACC,-0.145
18,CCTGGGAG,-0.229
19,CGAGGATC,-0.0779
20,AAGGGCTA,-0.166
21,GACATTCC,0.456
22,AGGCGCTA,-0.0523

row,Sequence,PBM E-score
1,CACTCATG,-0.0169
2,ACGCACAG,0.00267
3,CTTGCACC,-0.0624
4,CCGCCCAC,-0.104
5,CAAAACAA,-0.0625
6,AGTTCATC,-0.0233
7,GGCGGGTA,-0.136
8,AAGGATGT,-0.0435
9,AGGCTAAA,-0.0101
10,CACCGTTA,0.0221
11,AAGGATCC,-0.132
12,AATGATTA,0.186
13,GGCGACAC,-0.0116
14,CGTCTCGA,0.0524
15,GTCTATGA,0.212
16,CCGGCAAG,0.0593
17,AAATATTG,0.181
18,CACATACG,-0.144
19,CGTGTACC,0.164
20,GGCCATTA,0.0762
21,CAGTTGGC,-0.0784
22,ACGCGATA,-0.0373

row,Sequence,PBM E-score
1,ACTATTAA,0.174
2,AGAAATGC,0.112
3,ATTCTGGA,0.182
4,CGAGGAAC,0.134
5,AAGCAGCA,-0.0795
6,ATTAGTCA,0.0896
7,CGGTCTGA,0.0415
8,AATATCGG,0.177
9,GTTGCCAA,-0.0588
10,AATCGCAG,0.0174
11,TCAGACAA,0.367
12,GGGCGATA,-0.16
13,CAGATAAA,0.00479
14,AATTTCTA,0.0498
15,GTGCCCCA,-0.156
16,AAACCCGG,0.0746
17,AGGTCTTC,-0.196
18,GATCTTTA,-0.0408
19,ATTGGATG,0.0568
20,GACCACCA,-0.246
21,AAAATCAT,0.134
22,ATGTCCTG,0.487

row,Sequence,PBM E-score
1,AATGGAGT,-0.122
2,ACCTAGCT,-0.2
3,CCGTCCCC,-0.328
4,ATCTCTAG,-0.193
5,ATACTTTA,0.0212
6,CTGCATAC,0.0422
7,TAGACAAA,0.446
8,AATGTTCG,0.0628
9,CCAGGCCA,-0.214
10,AACTCAAT,0.137
11,GCGAATAC,-0.114
12,AACAATGG,0.0345
13,CGGTACCC,-0.236
14,CCCAGCAG,-0.173
15,AACTGGCA,0.0327
16,CCGCATGC,0.0628
17,TTCCCCAA,0.0823
18,ACTATACT,0.118
19,CAAGTTAA,0.0484
20,TATTTTGA,0.033
21,GCCATTTA,0.0227
22,CAGCATCA,-0.126

row,Sequence,PBM E-score
1,ATGGGAAT,-0.188
2,GCATGCCA,-0.204
3,TCGTCCAA,0.0731
4,CAAAGGCA,0.0184
5,CCCATTTC,-0.195
6,AAATAGCT,-0.0751
7,GTGCGCTA,-0.12
8,CTGTTCAA,-0.132
9,CACGCTTC,-0.188
10,CTATCATA,-0.0179
11,AAACGACT,0.0613
12,ATGAAATG,0.0486
13,GCGTCTTA,-0.0952
14,GGCTGAAC,0.0163
15,CCGACACC,-0.0775
16,AGGAAGTG,-0.171
17,GTACGTGA,0.0697
18,ATCAACAA,0.0312
19,ACGATGCC,-0.294
20,ATAAGTTG,-0.00629
21,CTAAAGCC,-0.159
22,ACGACGTA,0.109
